# Reference: the supplement of paper PMC8728848
# The list shows a part of the results.
# What was measured:
# Assay in all cases: glycan array binding signal (z-score within array); higher = stronger binding
# Settings in all cases: glycan notation: IUPAC condensed, linker removed
# [1] = target: Neu5Ac(a2-3)Gal(b1-4)GlcNAc(b1-2)Man(a1-3)[Neu5Ac(a2-6)Gal(b1-4)GlcNAc(b1-2)Man(a1-6)]Man(b1-4)GlcNAc(b1-4)GlcNAc
# Outline: (§1)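 Glycan array data were curated from 3228 arrays in the Consortium for Functional Glycomics database and kept only where the protein sequence was available. Glycan names were converted to IUPAC-condensed notation, and columns mapping to the same glycan were averaged. The binding signal is a within-array Z-score, averaged across arrays of the same protein sequence at different concentrations or buffers and across linkers. Negative Z-scores can be read as non-binding.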
# [2] = target: Neu5Ac(a2-3)Gal(b1-4)GlcNAc(b1-2)[Neu5Ac(a2-3)Gal(b1-4)GlcNAc(b1-4)]Man(a1-3)[GlcNAc(b1-4)][Neu5Ac(a2-3)Gal(b1-4)GlcNAc(b1-2)[Neu5Ac(a2-3)Gal(b1-4)GlcNAc(b1-6)]Man(a1-6)]Man(b1-4)GlcNAc(b1-4)GlcNAc
# Outline: as §1
# [3] = target: Neu5Ac(a2-3)Gal(b1-4)GlcNAc(b1-2)[Neu5Ac(a2-3)Gal(b1-4)GlcNAc(b1-4)]Man(a1-3)[GlcNAc(b1-4)][Neu5Ac(a2-3)Gal(b1-4)GlcNAc(b1-4)Man(a1-6)]Man(b1-4)GlcNAc(b1-4)GlcNAc
# Outline: as §1
# [4] = target: Neu5Ac(a2-3)Gal(b1-4)GlcNAc(b1-2)[Neu5Ac(a2-3)Gal(b1-4)GlcNAc(b1-6)]Man(a1-6)[Neu5Ac(a2-3)Gal(b1-4)GlcNAc(b1-2)Man(a1-3)][GlcNAc(b1-4)]Man(b1-4)GlcNAc(b1-4)GlcNAc
# Outline: as §1
# [5] = target: Neu5Ac(a2-3)Gal(b1-4)GlcNAc(b1-3)Gal
# Outline: as §1
# [6] = target: Neu5Ac(a2-3)Gal(b1-4)GlcNAc(b1-3)Gal(b1-3)GlcNAc
# Outline: as §1
# [7] = target: Neu5Ac(a2-3)Gal(b1-4)GlcNAc(b1-3)Gal(b1-4)GlcNAc
# Outline: as §1
# [8] = target: Neu5Ac(a2-3)Gal(b1-4)GlcNAc(b1-3)Gal(b1-4)GlcNAc(b1-2)Man(a1-3)[Neu5Ac(a2-3)Gal(b1-4)GlcNAc(b1-3)Gal(b1-4)GlcNAc(b1-2)Man(a1-6)]Man(b1-4)GlcNAc(b1-4)GlcNAc
# Outline: as §1
# [9] = target: Neu5Ac(a2-3)Gal(b1-4)GlcNAc(b1-3)Gal(b1-4)GlcNAc(b1-3)Gal(b1-4)GlcNAc
# Outline: as §1
# [10] = target: Neu5Ac(a2-3)Gal(b1-4)GlcNAc(b1-3)Gal(b1-4)GlcNAc(b1-3)Gal(b1-4)GlcNAc(b1-2)Man(a1-3)[Neu5Ac(a2-3)Gal(b1-4)GlcNAc(b1-3)Gal(b1-4)GlcNAc(b1-3)Gal(b1-4)GlcNAc(b1-2)Man(a1-6)]GalNAc
# Outline: as §1
# [11] = target: Neu5Ac(a2-3)Gal(b1-4)GlcNAc(b1-3)Gal(b1-4)GlcNAc(b1-3)GalNAc
# Outline: as §1
# [12] = target: Neu5Ac(a2-3)Gal(b1-4)GlcNAc(b1-3)Gal(b1-4)GlcNAc(b1-3)[Neu5Ac(a2-3)Gal(b1-4)GlcNAc(b1-3)Gal(b1-4)GlcNAc(b1-6)]GalNAc
# Outline: as §1
# [13] = target: Neu5Ac(a2-3)Gal(b1-4)GlcNAc(b1-3)Gal(b1-4)GlcNAc(b1-6)[Gal(b1-3)]GalNAc
# Outline: as §1
# [14] = target: Neu5Ac(a2-3)Gal(b1-4)GlcNAc(b1-3)Gal(b1-4)[Fuc(a1-3)]GlcNAc
# Outline: as §1
# [15] = target: Neu5Ac(a2-3)Gal(b1-4)GlcNAc(b1-3)GalNAc
# Outline: as §1
# [16] = target: Neu5Ac(a2-3)Gal(b1-4)GlcNAc(b1-3)[Neu5Ac(a2-3)Gal(b1-4)GlcNAc(b1-6)]GalNAc
# Outline: as §1
# [17] = target: Neu5Ac(a2-3)Gal(b1-4)GlcNAc(b1-6)GalNAc
# Outline: as §1
# [18] = target: Neu5Ac(a2-3)Gal(b1-4)GlcNAc(b1-6)[Gal(b1-3)]GalNAc
# Outline: as §1
# [19] = target: Neu5Ac(a2-3)Gal(b1-4)GlcNAc(b1-6)[Neu5Ac(a2-3)Gal(b1-3)]GalNAc
# Outline: as §1
# [20] = target: Neu5Ac(a2-3)Gal(b1-4)GlcNAc6S
# Outline: as §1
# [21] = target: Neu5Ac(a2-3)Gal(b1-4)[Fuc(a1-3)]GlcNAc
# Outline: as §1
# [22] = target: Neu5Ac(a2-3)Gal(b1-4)[Fuc(a1-3)]GlcNAc(b1-2)Man
# Outline: as §1
# [23] = target: Neu5Ac(a2-3)Gal(b1-4)[Fuc(a1-3)]GlcNAc(b1-3)Gal
# Outline: as §1
# [24] = target: Neu5Ac(a2-3)Gal(b1-4)[Fuc(a1-3)]GlcNAc(b1-3)Gal(b1-4)GlcNAc
# Outline: as §1
# [25] = target: Neu5Ac(a2-3)Gal(b1-4)[Fuc(a1-3)]GlcNAc(b1-3)Gal(b1-4)[Fuc(a1-3)]GlcNAc(b1-3)Gal(b1-4)[Fuc(a1-3)]GlcNAc
# Outline: as §1
# [26] = target: Neu5Ac(a2-3)Gal(b1-4)[Fuc(a1-3)]GlcNAc(b1-3)GalNAc
# Outline: as §1
# [27] = target: Neu5Ac(a2-3)Gal(b1-4)[Fuc(a1-3)]GlcNAc(b1-6)[Gal(b1-3)]GalNAc
# Outline: as §1
# [28] = target: Neu5Ac(a2-3)Gal(b1-4)[Fuc(a1-3)]GlcNAc(b1-6)[Neu5Ac(a2-3)Gal(b1-3)]GalNAc
# Outline: as §1
# [29] = target: Neu5Ac(a2-3)Gal(b1-4)[Fuc(a1-3)]GlcNAc6S
# Outline: as §1
# [30] = target: Neu5Ac(a2-3)Gal6S(b1-4)GlcNAc
# Outline: as §1
# [31] = target: Neu5Ac(a2-3)Gal6S(b1-4)[Fuc(a1-3)]GlcNAc
# Outline: as §1
# [32] = target: Neu5Ac(a2-3)GalNAc
# Outline: as §1
# [33] = target: Neu5Ac(a2-3)GalNAc(b1-4)GlcNAc
# Outline: as §1
# [34] = target: Neu5Ac(a2-3)[GalNAc(b1-4)]Gal(b1-4)Glc
# Outline: as §1
# [35] = target: Neu5Ac(a2-3)[GalNAc(b1-4)]Gal(b1-4)GlcNAc
# Outline: as §1
# [36] = target: Neu5Ac(a2-3)[GalNAc(b1-4)]Gal(b1-4)GlcNAc(b1-3)GalNAc
# Outline: as §1
# [37] = target: Neu5Ac(a2-3)[Neu5Ac(a2-6)]GalNAc
# Outline: as §1
# [38] = target: Neu5Ac(a2-6)Gal
# Outline: as §1
# [39] = target: Neu5Ac(a2-6)Gal(b1-3)GlcNAc(b1-3)[Gal(b1-4)GlcNAc(b1-6)]Gal(b1-4)Glc
# Outline: as §1
# [40] = target: Neu5Ac(a2-6)Gal(b1-4)Glc
# Outline: as §1
# [41] = target: Neu5Ac(a2-6)Gal(b1-4)GlcNAc
# Outline: as §1
# [42] = target: Neu5Ac(a2-6)Gal(b1-4)GlcNAc(b1-2)Man
# Outline: as §1
# [43] = target: Neu5Ac(a2-6)Gal(b1-4)GlcNAc(b1-2)Man(a1-3)Man(b1-4)GlcNAc(b1-4)GlcNAc
# Outline: as §1
# [44] = target: Neu5Ac(a2-6)Gal(b1-4)GlcNAc(b1-2)Man(a1-3)[Gal(b1-4)GlcNAc(b1-2)Man(a1-6)]Man(b1-4)GlcNAc(b1-4)GlcNAc
# Outline: as §1
# [45] = target: Neu5Ac(a2-6)Gal(b1-4)GlcNAc(b1-2)Man(a1-3)[GlcNAc(b1-2)Man(a1-6)]Man(b1-4)GlcNAc(b1-4)GlcNAc
# Outline: as §1
binder,measurement,setting,value
"Siglec-E (Mus musculus), Q91Y57 (protein) MLLLLLLLLLWGIKGVEGQNPQEVFTLNVERKVVVQEGLCVLVPCNFSYLKKRLTDWTDSDPVHGFWYREGTDRRKDSIVATNNPIRKAVKETRNRFFLLGDPWRNDCSLNIREIRKKDAGLYFFRLERGKTKYNYMWDKMTLVVTALTNTPQILLPETLEAGHPSNLTCSVPWDCGWTAPPIFSWTGTSVSFLSTNTTGSSVLTITPQPQDHGTNLTCQVTLPGTNVSTRMTTRLNVSYAPKNLTVTIYQGADSVSTILKNGSSLPISEGQSLRLICSTDSYPPANLSWSWDNLTLCPSKLSKPGLLELFPVHLKHGGVYTCQAQHALGSQHISLSLSPQSSATLSEMMMGTFVGSGVTALLFLSVCILLLAVRSYRRKPARPAVVAPHPDALKVSVSQNPLVESQADDSSEPLPSILEAAPSSTEEEIHYATLSFHEMKPMNLWGQQDTTTEYSEIKFPQRTAWP",glycan array binding signal (z-score),[1],-0.554
same,glycan array binding signal (z-score),[2],-0.131
same,glycan array binding signal (z-score),[3],-0.086
same,glycan array binding signal (z-score),[4],-0.562
same,glycan array binding signal (z-score),[5],-0.071
same,glycan array binding signal (z-score),[6],-0.64
same,glycan array binding signal (z-score),[7],-0.459
same,glycan array binding signal (z-score),[8],-0.264
same,glycan array binding signal (z-score),[9],-0.343
same,glycan array binding signal (z-score),[10],-0.242
same,glycan array binding signal (z-score),[11],-0.308
same,glycan array binding signal (z-score),[12],-0.335
same,glycan array binding signal (z-score),[13],-0.388
same,glycan array binding signal (z-score),[14],-0.489
same,glycan array binding signal (z-score),[15],0.58
same,glycan array binding signal (z-score),[16],0.079
same,glycan array binding signal (z-score),[17],0.177
same,glycan array binding signal (z-score),[18],-0.418
same,glycan array binding signal (z-score),[19],-0.45
same,glycan array binding signal (z-score),[20],-0.318
same,glycan array binding signal (z-score),[21],-0.391
same,glycan array binding signal (z-score),[22],-0.192
same,glycan array binding signal (z-score),[23],-0.399
same,glycan array binding signal (z-score),[24],-0.353
same,glycan array binding signal (z-score),[25],-0.568
same,glycan array binding signal (z-score),[26],-0.668
same,glycan array binding signal (z-score),[27],-0.331
same,glycan array binding signal (z-score),[28],-0.048
same,glycan array binding signal (z-score),[29],-0.096
same,glycan array binding signal (z-score),[30],-0.532
same,glycan array binding signal (z-score),[31],-0.513
same,glycan array binding signal (z-score),[32],0.203
same,glycan array binding signal (z-score),[33],-0.339
same,glycan array binding signal (z-score),[34],-0.34
same,glycan array binding signal (z-score),[35],-0.484
same,glycan array binding signal (z-score),[36],-0.355
same,glycan array binding signal (z-score),[37],-0.301
same,glycan array binding signal (z-score),[38],-0.448
same,glycan array binding signal (z-score),[39],-0.473
same,glycan array binding signal (z-score),[40],-0.388
same,glycan array binding signal (z-score),[41],-0.408
same,glycan array binding signal (z-score),[42],0.336
same,glycan array binding signal (z-score),[43],-0.181
same,glycan array binding signal (z-score),[44],-0.274
same,glycan array binding signal (z-score),[45],-0.564
